This assay deals with MDA-MB-468 breast. The assay is described as follows: NCI-60 cell line screen, 48 h.

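Method: 48-hour compound exposure of cells in 96-well plates, five concentrations, linear interpolation of endpoints. Here, GI50 denotes the concentration required for 50% inhibition of growth.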 Not every entry of the source has a single result; some have several. The list is limited to them. An entry can have further records. Records of one sample usually come from different ranges of test concentrations, not given here; some values may only mark the edge of a range.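 The concentration for full growth arrest is given as TGI.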

In the case of `COC(=O)[C@@H](C)C[C@H](Cc1ccccc1)NC(=O)c1csc([C@@H](C[C@H](C(C)C)N(C)C(=O)[C@@H](NC(=O)[C@H]2CCCCN2C)C(C)C)OC(C)=O)n1`, the GI50 was 0.17 nM and 2.5 nM.
In the case of `CCNc1nc(N2CC(=O)Nc3cc(OC)ccc32)c2ccccc2n1`, the TGI was 3.63 nM and > 100 µM.

The values are drawn from PubChem BioAssay (NCI).
